# Test results as given in PubChem BioAssay AID686979 (National Center for Advancing Translational Sciences (NCATS), 2013).
# Screen size: about 420,000 compounds; about 50,000 (12%) were called active. This list was built around the results that the source calls inconclusive (neither active nor inactive); the mix of calls is not that of the screen. The call rests on the fitted dose curve; in most records, active means well fitted inhibition curve with a large enough effect; inconclusive means small, poorly fitted or top-dose-only effect; inactive means flat fitted curve, though single readings scatter. Potencies of inconclusive entries are left out as doubtful fits.
# Assay: qHTS for Inhibitors of human tyrosyl-DNA phosphodiesterase 1 (TDP1): qHTS in cells in presence of CPT; further: nearly all actives have a fitted effect of over 55% in size
# Conditions: chicken DT40 Tdp1-/-;hTDP1 cells + 20 nM CPT, ATP luminescence, 48 h; activity change, negative = growth inhibition: at 46.2 µM (top of the series) unless noted
# In short: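 Chicken DT40 Tdp1-/- cells complemented with human TDP1, 400 cells/well, exposed to compounds plus 20 nM camptothecin for at least 48 h at 37 C; viability read as ATP content by CellTiter-Glo luminescence.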
# On the % scale 0 is the no-effect control and ±100 the full control effect; potency means the concentration at half of the fitted maximal effect; tags describe the fitted curve by direction and shape.
SMILES,"activity change, negative = growth inhibition",Potency
CCOC(=O)c1sc2nc(SC)nc(-c3ccccc3)c2c1N,inconclusive: -31.5% [inhibitor],
CC(C)(C)c1cc(Cl)ccc1OCCOCCN1CCCC1,,"inconclusive [inhibitor, single point]"
CCOc1ccc(C(C)NC(=S)NC2CCCCC2)cc1OCC (stereo not drawn),,"inconclusive [inhibitor, single point]"
COC(=O)CCC(=O)NC1CC(C)(C)Cc2c1cnn2-c1ccc(F)cc1 (stereo not drawn),,active: 0.58 µM
COc1ccc(C2=NS(=O)(=O)N(C)C(C(=O)Nc3ccc(OC)c(OC)c3)=C2)cc1,,"inconclusive [inhibitor, single point]"
COc1ccc(CCNC(=O)COC(=O)/C=C/c2ccc(OCC#N)c(OC)c2)cc1OC,,inactive
O=C(CN1C(=O)CCc2cc(S(=O)(=O)N3CCOCC3)ccc21)NCc1ccccc1,,inactive
COc1ccc(-c2nc(CSc3nncn4c3cc3sccc34)c(C)o2)cc1OC,,active: 1.84 µM
Cc1ccc(CC(=O)O/N=C(\N)c2ccncc2)cc1,,inactive
O=C1N(Cc2cccnc2)C[C@@H]2C[C@@H](c3cccc(Oc4ccccc4)c3)N3CCC[C@@]123,,"inconclusive [inhibitor, single point]"
CN(C)S(=O)(=O)c1cccc(NC(=S)NNC(=O)c2cc3ccccc3cc2O)c1,,"inconclusive [inhibitor, single point]"
COc1ccccc1NC(=S)NC(C)C(c1cccs1)N1CCOCC1 (stereo not drawn),,"inconclusive [inhibitor, single point]"
Cc1cc(C)n(-c2nncc(-c3ccccc3)n2)n1,,inactive
CN(Cc1ccccc1)C(=O)c1ccc(Nc2nc(C(N)Cc3ccccc3)cs2)nc1 (stereo not drawn),,active: 14.6 µM
CN1CCN(c2ccc(NC(=O)COc3ccccc3Cl)cc2)CC1,,active: 16.4 µM
CCc1sc(N(C(=O)Cc2ccccc2)c2ccccc2F)nc1-c1ccc(C)cc1,,"inconclusive [inhibitor, single point]"
O=[N+]([O-])c1ccccc1/C=N/n1c(C(F)(F)F)n[nH]c1=S,,inactive
CCc1ccc(NC(=O)CSC2=Nc3ccccc3C3=NC(CCC(=O)NCc4ccco4)C(=O)N23)cc1 (stereo not drawn),,"inconclusive [inhibitor, single point]"
NC(=O)CN(c1ccc(Oc2ccccc2)cc1)S(=O)(=O)c1ccccc1,,active: 20.6 µM
CCc1nc(Nc2ccc(F)cc2)c2oc3ccccc3c2n1,,"inconclusive [inhibitor, single point]"
CCCCc1cc(=O)oc2c(C)c(OCC(=O)NCCN3CCOCC3)ccc12,inconclusive: -30.9% [inhibitor],
O=C(Nc1ccc(Cl)cc1)Nc1ccc2c(c1)N1CCN=C1S2,,active: 23.1 µM
Nc1c(N(CCCO)C(=O)CCCN2C(=O)c3cccc4cccc(c34)C2=O)c(=O)[nH]c(=O)n1Cc1ccccc1,,active: 10.3 µM
COc1ccc(OC)c(NC(=O)CSc2nc(N3CCOCC3)nc(N3CCOCC3)n2)c1,,"inconclusive [inhibitor, partial curve, poor fit]"

SMILES,"activity change, negative = growth inhibition",Potency
CCCCOc1ccc(C(=O)C(CN2CCOCC2)c2ccccc2)cc1 (stereo not drawn),,active: 13 µM
CCCNC(=O)c1ccc2nc(CCc3ccccc3)oc2c1,,"inconclusive [inhibitor, partial curve, poor fit]"
CCOC(=O)c1nc2cc3n(c(C)c-2c1C)C(C)C(CC)=C3C (stereo not drawn),,active: 20.6 µM
Cc1ccc(NC(=O)C(CC(=O)O)C2CCCO2)c(C)c1 (stereo not drawn),,inactive
CC(=O)c1ccc(NC(=S)Nc2ccc3cn[nH]c3c2)cc1,,"inconclusive [inhibitor, single point]"
CC1(C)CC(NC2C3CC4CC(C3)CC2C4)CC(C)(C)N1 (stereo not drawn),,active: 18.4 µM
COC(=O)CCC(=O)Nc1cccc(Cl)c1,,inactive
Cc1cc(C)n(/N=C/c2ccccc2O)c(=O)c1,,inactive
CCC(=O)NC(c1ccco1)c1cc(Cl)c2cccnc2c1O (stereo not drawn),,"inconclusive [inhibitor, single point]"
CCCc1nc2sc3c(c2c(=O)[nH]1)CCCC3,,"inconclusive [inhibitor, single point]"
CCOC(=O)C1(Cc2cccc(Cl)c2)CCCN(C(=O)c2c(CC)noc2C)C1 (stereo not drawn),,"inconclusive [inhibitor, single point]"
O=C1c2sc3nc4c(c(=O)n3c2C(=O)N1c1ccccc1)CCC4,,active: 4.11 µM
O=C(CN1CCN(S(=O)(=O)c2ccc(Br)cc2)CC1)N/N=C/c1ccc(Cl)c([N+](=O)[O-])c1,,"inconclusive [inhibitor, single point]"
S=c1nn[nH]c2ccccc12,,inactive
CC(=O)Nc1ccc(-c2ccnc3c2CC(C(=O)NCC2CCOCC2)O3)cc1 (stereo not drawn),,active: 4.61 µM
CCCCCCCCCC(=O)N[C@H](CN1CCOCC1)[C@H](O)c1ccccc1,,"inconclusive [inhibitor, single point]"
CCOC(=O)C1C(c2ccc(OC)c(OC)c2)c2c([nH][nH]c2=O)CC1(C)O (stereo not drawn),,inactive
COc1ccc(C(=O)n2nc(-c3ccco3)nc2NCc2cccs2)cc1OC,,"inconclusive [inhibitor, single point]"
CCNC(=S)NS(=O)(=O)c1ccc(F)cc1,,inactive
O=Cc1c[nH]c2cccc(OCc3ccccc3)c12,,"inconclusive [inhibitor, partial curve, poor fit]"
N=c1sccn1CC(=O)Nc1cccc(S(=O)(=O)N2CCCCCC2)c1,,"inconclusive [inhibitor, single point]"
CC(C)(C)C(=O)C(Cl)C(=O)Nc1ccccc1 (stereo not drawn),,active: 5.17 µM
CC(=O)c1cccc(NC(=O)c2cc(-c3ccc(Cl)s3)nc3ccccc23)c1,,"inconclusive [inhibitor, single point]"
COc1ccc(NC(=O)CC2C(=O)N(c3cccc(C)c3)C(=O)N2C2CCCCC2)cc1 (stereo not drawn),inconclusive: -34.4% [inhibitor],
